# Hit rate of the full screen: of about 52,000 compounds, about 1,700 (3.3%) were called active. Rule as the data show it: active = survival mostly below about 52% (no sharp cut-off); inactive = mostly above about 56%. Some of the results follow.
# Test system: Wild type
# Test: S. aureus survival, RN4220 and DeltatarO strains – OD600, teichoic acid synthesis inhibitors, primary screen (AID 463173)
# Conditions: S. aureus RN4220 wild type/DeltatarO growth, OD600, 18 h, hits give low values, screened at 18.75 µg/mL (by protocol)
row,SMILES,survival
1,CCc1cccc(C)c1NC(=O)CCCn1c(C)c2cnn(-c3ccccc3)c(=O)c2c1C,inactive: 73%
2,CN(C)CC(O)COc1ccc2ccccc2c1 (stereo not given),inactive: 125%
3,Cn1c(=O)c2c(nc(NCCCCO)n2Cc2ccccc2Cl)n(C)c1=O,inactive: 77%
4,COc1ccc(C(=O)Nc2nnc(SCc3cc(=O)c4cccc(F)c4[nH]3)s2)cc1,inactive: 80%
5,COc1ccc2c(C)c(CCC(=O)NCCc3ccc(OC)c(OC)c3)c(=O)oc2c1,inactive: 80%
6,CN1C(=O)CC(C(=O)Nc2ccc(C(=O)O)cc2)SC1=Nc1ccc(Cl)cc1 (stereo not given),inactive: 75%
7,CNc1nc2c(c(=O)[nH]c(=O)n2C)n1Cc1cccc2ccccc12,inactive: 106%
8,COc1cccc(-c2nnc(SCC(=O)N(C)c3ccccc3)o2)c1,inactive: 85%
9,CC(=O)Nc1cc(C(=O)NCc2ccc(F)cc2)ccc1S(=O)(=O)c1ccc(C)cc1,inactive: 71%
10,COc1ccc(NC(=O)c2cn3ccc(C)cc3n2)cc1,inactive: 99%
11,CC1CC2(C)CC(C)C1(COC(=O)Nc1ccccc1)CO2 (stereo not given),inactive: 118%
12,Cc1ccc2c(=O)cc(C(=O)Nc3ccc(S(=O)(=O)N4CCCCC4C)cc3)oc2c1C (stereo not given),inactive: 88%
13,CCN(CC)CCCNC(=O)Cn1ncc2c3ccccc3n(Cc3ccccc3)c2c1=O,inactive: 92%
14,CCN(CC)c1ccc(NS(=O)(=O)c2cc(-c3onc(C)c3C)ccc2OC)c(C)c1,inactive: 77%
15,Cc1cc(C)nc(/N=C2\NC(=O)CC3C(=O)NCCN23)n1 (stereo not given),inactive: 107%
16,CC(=O)c1ccc(NC(=O)C(C)n2nc(-c3ccccc3)ccc2=O)cc1 (stereo not given),inactive: 61%
17,CCOC(=O)c1ccc(NC(=O)CC2C(=O)N(c3cccc(OC)c3)C(=O)N2Cc2cccnc2)cc1 (stereo not given),inactive: 101%
18,CCn1c2ccccc2c2cc(CN3CCN(Cc4ccc(Cl)cc4)CC3)ccc21,active: -2%
19,Cc1cc(C)n(C(C)CC(=O)Nc2cccc(C#N)c2)n1 (stereo not given),inactive: 71%
20,CCc1nc(Nc2ccc(F)c(Cl)c2)c2c3c(sc2n1)CCCC3,active: -1%
21,O=C(Cn1ncc2c3ccccc3n(Cc3cccc(Cl)c3)c2c1=O)NCCCc1ccccc1,inactive: 84%
22,COc1ccc(-c2c(C)nn3c(-c4ccccc4)cc(C)nc23)cc1OC,inactive: 59%
23,Cc1cccc(C)c1NC(=O)Cn1cc(C(=O)c2ccco2)c2ccccc21,inactive: 70%
24,Cc1ccnc(N2CCC(C(=O)NCc3ccc(F)cc3)CC2)n1,inactive: 105%
25,Cc1cc(O)c(C(c2ccccc2)N2CCN(c3ccccc3)CC2)c(=O)n1Cc1ccco1 (stereo not given),inactive: 78%

# Source: PubChem BioAssay AID463173 (ICCB-Longwood Screening Facility, Harvard Medical School, 2010)
